Reference: patent US20250129053A1, “HERBICIDAL IMIDAZOLE COMPOUNDS” (SYNGENTA CROP PROTECTION AG, priority 2021, published 2025)
Several values for one entry are separate records, joined by “and”; a condition that tells them apart may be missing. Identical values can stand only once. The name of at least one read-out is uncertain.

Columns and labels:
Format in all cases: in vivo
Details in all cases: 250 g/ha, evaluated after 13 days, five-point scale
[1] = tested on: Ipomoea hederacea (IPOHE); assay: Pre-emergence herbicidal glasshouse test
[2] = tested on: Setaria faberi (SETFA); assay: Pre-emergence herbicidal glasshouse test
[3] = tested on: Amaranthus retroflexus (AMARE); assay: Post-emergence herbicidal glasshouse test
[4] = tested on: Setaria faberi (SETFA); assay: Post-emergence herbicidal glasshouse test
[5] = tested on: Amaranthus palmeri (AMAPA); assay: Pre-emergence herbicidal glasshouse test
[6] = tested on: Echinochloa crus-galli (ECHCG); assay: Pre-emergence herbicidal glasshouse test
[7] = tested on: Echinochloa crus-galli (ECHCG); assay: Post-emergence herbicidal glasshouse test
[8] = tested on: Amaranthus retroflexus (AMARE); assay: Pre-emergence herbicidal glasshouse test
[9] = tested on: Amaranthus palmeri (AMAPA); assay: Post-emergence herbicidal glasshouse test
[10] = tested on: Ipomoea hederacea (IPOHE); assay: Post-emergence herbicidal glasshouse test

Structure (SMILES) | percentage damage caused to the plant, IPOHE [1] | percentage damage caused to the plant, SETFA [2] | percentage damage caused to the plant, AMARE [3] | percentage damage caused to the plant, SETFA [4] | percentage damage caused to the plant, AMAPA [5] | percentage damage caused to the plant, ECHCG [6] | percentage damage caused to the plant, ECHCG [7] | percentage damage caused to the plant, AMARE [8] | percentage damage caused to the plant, AMAPA [9] | percentage damage caused to the plant, IPOHE [10]
FC(F)(F)c1ccc(-c2nc(Br)cn2Cc2ncc(Cl)cn2)cc1 [Compound 1.073] | 5 (5=81-100%) | 5 (5=81-100%) | 5 (5=81-100%) | 5 (5=81-100%) | 5 (5=81-100%) | 5 (5=81-100%) | 4 (4=61-80%) | 5 (5=81-100%) | 5 (5=81-100%) | 4 (4=61-80%)
FC(F)(F)c1cn(Cc2ncc(Cl)cn2)c(-c2cnc(Cl)nc2)n1 [Compound 1.036] | 1 (1=0-20%) | 1 (1=0-20%) | 1 (1=0-20%) | 1 (1=0-20%) | 1 (1=0-20%) | 1 (1=0-20%) | 1 (1=0-20%) | 1 (1=0-20%) | 1 (1=0-20%) | 1 (1=0-20%)
Cc1cnc(Cn2cc(C(F)(F)F)nc2-c2ccc(C(F)(F)F)cc2)nc1 [Compound 1.071] | 5 (5=81-100%) | 5 (5=81-100%) | 5 (5=81-100%) | 5 (5=81-100%) | 5 (5=81-100%) | 5 (5=81-100%) | 5 (5=81-100%) | 5 (5=81-100%) | 5 (5=81-100%) | 4 (4=61-80%)
FC(F)(F)c1ccc(-c2ncc(Cl)n2Cc2ncc(Cl)cn2)cc1 [Compound 1.075] | 1 (1=0-20%) | 5 (5=81-100%) | 3 (3=41-60%) | 2 (2=21-40%) | 4 (4=61-80%) | 2 (2=21-40%) | 3 (3=41-60%) | 1 (1=0-20%) | 3 (3=41-60%) | 3 (3=41-60%)
FC(F)(F)c1nc(-c2ccc(Cl)cc2)n(Cc2ncc(Cl)cn2)c1Cl [Compound 1.058] | 2 (2=21-40%) | 5 (5=81-100%) | 5 (5=81-100%) | 5 (5=81-100%) | 5 (5=81-100%) | 5 (5=81-100%) | 5 (5=81-100%) | 4 (4=61-80%) | 5 (5=81-100%) | 4 (4=61-80%)
Clc1ccc(-c2nc(Cl)cn2Cc2ncc(Cl)cn2)cc1 [Compound 1.056] | 1 (1=0-20%) | 3 (3=41-60%) | 4 (4=61-80%) | 3 (3=41-60%) | 3 (3=41-60%) | 3 (3=41-60%) | 3 (3=41-60%) | 3 (3=41-60%) | 4 (4=61-80%) | 2 (2=21-40%)
FC(F)(F)c1ccc(-c2nc(Cl)cn2Cc2ncc(Cl)cn2)cc1 [Compound 1.012] | 5 (5=81-100%) | 5 (5=81-100%) | 5 (5=81-100%) | 5 (5=81-100%) | 4 (4=61-80%) | 5 (5=81-100%) | 5 (5=81-100%) | 5 (5=81-100%) | 5 (5=81-100%) | 3 (3=41-60%)
Cc1ccc(-c2nc(C(F)(F)F)c(Cl)n2Cc2ncc(Cl)cn2)cc1 [Compound 1.015] | 2 (2=21-40%) | 5 (5=81-100%) | 5 (5=81-100%) | 5 (5=81-100%) | 5 (5=81-100%) | 5 (5=81-100%) | 5 (5=81-100%) | 5 (5=81-100%) | 5 (5=81-100%) | 3 (3=41-60%)
N#Cc1ccc(-c2nc(C(F)(F)F)cn2Cc2ncc(Cl)cn2)cn1 [Compound 1.039] | 5 (5=81-100%) | 5 (5=81-100%) | 5 (5=81-100%) | 5 (5=81-100%) | 5 (5=81-100%) | 5 (5=81-100%) | 5 (5=81-100%) | 5 (5=81-100%) | 5 (5=81-100%) | 4 (4=61-80%)
Clc1ccc(-c2nc(Br)cn2Cc2ncc(Cl)cn2)cc1 [Compound 1.034] | 3 (3=41-60%) | 5 (5=81-100%) | 4 (4=61-80%) | 3 (3=41-60%) | 5 (5=81-100%) | 4 (4=61-80%) | 3 (3=41-60%) | 5 (5=81-100%) | 3 (3=41-60%) | 2 (2=21-40%)
COc1cc(-c2nc(C(F)(F)F)cn2Cc2ncc(Cl)cn2)cnc1F [Compound 1.019] | 5 (5=81-100%) | 5 (5=81-100%) | 5 (5=81-100%) | 3 (3=41-60%) | 5 (5=81-100%) | 5 (5=81-100%) and 4 (4=61-80%) | 5 (5=81-100%) and 3 (3=41-60%) | 5 (5=81-100%) | 5 (5=81-100%) and 4 (4=61-80%) | 4 (4=61-80%) and 3 (3=41-60%)
FC(F)Oc1cnc(Cn2cc(C(F)(F)F)nc2-c2ccc(C(F)(F)F)cc2)nc1 [Compound 1.068] | 5 (5=81-100%) | 5 (5=81-100%) | 5 (5=81-100%) | 4 (4=61-80%) | 5 (5=81-100%) | 4 (4=61-80%) | 4 (4=61-80%) | 5 (5=81-100%) | 5 (5=81-100%) | 3 (3=41-60%)
FC(F)(F)c1cn(Cc2ncc(Cl)cn2)c(-c2cccc(Cl)c2)n1 [Compound 1.047] | 5 (5=81-100%) | 5 (5=81-100%) | 5 (5=81-100%) | 5 (5=81-100%) | 5 (5=81-100%) | 5 (5=81-100%) | 4 (4=61-80%) | 5 (5=81-100%) | 5 (5=81-100%) | 4 (4=61-80%)
FC(F)(F)c1ccc(-c2nc(C(F)(F)F)cn2Cc2ncc(Br)cn2)cc1 [Compound 1.072] | 5 (5=81-100%) | 5 (5=81-100%) | 5 (5=81-100%) | 5 (5=81-100%) | 5 (5=81-100%) | 5 (5=81-100%) | 5 (5=81-100%) | 5 (5=81-100%) | 5 (5=81-100%) | 4 (4=61-80%)
Cc1ccc(-c2nc(C(F)(F)F)cn2Cc2ncc(Cl)cn2)cn1 [Compound 1.067] | 5 (5=81-100%) | 5 (5=81-100%) | 5 (5=81-100%) | 5 (5=81-100%) | 5 (5=81-100%) | 5 (5=81-100%) | 5 (5=81-100%) | 5 (5=81-100%) | 5 (5=81-100%) | 4 (4=61-80%)
